Reference: PubChem BioAssay AID624171 (National Center for Advancing Translational Sciences (NCATS), 2012)
The campaign covered roughly 410,000 compounds. About 1,200 (0.29%) were called active. Inconclusive results, whose numbers are uncertain, are shown with a selection of clear calls. Calls follow the shape of the dose curve; as a rule, active = well fitted activation curve with a large enough effect; inconclusive = small, poorly fitted or top-dose-only effect; inactive = flat fitted curve, though single readings scatter. A potency beside an inconclusive call is a rough fit, not a confirmed value.

Assay: qHTS of Nrf2 Activators; also: nearly all actives have a fitted effect of over 65% in size; as to activation: % of control where 0% means no effect
Conditions: AREc32 ARE-luciferase reporter (MCF7-derived line), luminescence, 24 h; activation: at 46.1 µM (top of the series)
Method in brief: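 AREc32_Fluc, 1000 cells/well, OPTI-MEM + 5% FBS, o/n 37 deg C 5% CO2; 23 nL cpd by pin tool, 24 hr; Steady-Glo 30 min RT, luminescence.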
Potency is read from the fitted curve at half-maximal effect; tags tell the direction and shape of the fitted curve.

Row | SMILES | Potency | activation
1 | COc1ccc(C(=O)C(CCC(CNC(C)(C)C)C(=O)c2ccc(OC)cc2)CNC(C)(C)C)cc1 (centres undefined) | inconclusive: 3.55 µM [activator, partial curve, poor fit] | 
2 | O=C(/C=C/c1ccccc1)c1cc(Br)ccc(=O)c1O | inconclusive: 22.4 µM [activator, single point] | 
3 | CC(=O)CC1(OC(C)=O)C(=O)N(C)c2ccccc21 (centres undefined) | inconclusive: 17.8 µM [activator, single point] | 
4 | CC(C)(C)c1ccc(C(=O)CSc2ncn[nH]2)cc1 | inconclusive: 28.2 µM [activator, single point] | 
5 | CC1(c2ccc(NC(=O)c3ccccc3F)cc2)CC1(Cl)Cl (centres undefined) | inconclusive: 11.2 µM [activator, partial curve, poor fit] | 
6 | C#CCN(C[C@@H]1[C@@H](OC(=O)NCCCCCC)[C@@H](OC(=O)NCCCCCC)Cn2c(=O)ccc(=O)n21)S(=O)(=O)c1ccc(C)cc1 | inconclusive: 3.16 µM [activator, single point] | 
7 | CCOC(=O)c1cnn(-c2nc(-c3ccc(F)cc3)cs2)c1C(F)(F)F |  | inactive: 0.116%
8 | O=[N+]([O-])c1cccc(/C=C/c2ccccn2)c1 | inconclusive: 1.41 µM [activator, full curve, poor fit] | 
9 | N#C/C(=C/c1cccs1)c1ccccn1 | inconclusive: 15.8 µM [activator, partial curve, poor fit] | 
10 | COc1cccc(CSc2nc3ccncc3n2CC(=O)Nc2ccc(OC)c(OC)c2OC)c1 |  | inactive: 0.134%
11 | O=C(Nc1cccc2ccccc12)c1ccccc1Cl | inconclusive: 17.8 µM [activator, single point] | 
12 | Cc1ccc(CNC(=O)CSc2nc3c(sc4ccccc43)c(=O)n2CCCC(=O)NCCO)cc1 |  | inactive: -0.536%
13 | O=C(Nc1cc(N2CCOCC2)ncn1)NC1(C(F)(F)F)Oc2ccccc2O1 | inconclusive: 20 µM [activator, single point] | 
14 | Cc1nc(-c2ccccc2)nc(-c2ccccc2)n1 | inconclusive: 11.2 µM [activator, partial curve, poor fit] | 
15 | c1csc(-c2csc(-c3cccs3)n2)c1 | inconclusive: 17.8 µM [activator, partial curve, poor fit] | 
16 | CC(OC(=O)c1ccc([N+](=O)[O-])s1)C(=O)NC1CCCCC1C (centres undefined) |  | inactive: 4.69%
17 | CSc1nnc(-c2ccco2)c(-c2ccco2)n1 | active: 7.94 µM | 
18 | CC1=C(C(=O)OC2CCCCC2)C(c2ccc(N(C)C)cc2)NC(=O)N1 (centres undefined) |  | inactive: -0.325%
19 | OC(COCc1ccccc1)CN1CCN(c2ccccc2F)CC1 (centres undefined) |  | inactive: 0.279%
20 | CC(C)n1c(-c2ccc(C(C)(C)C)cc2)n[nH]c1=S |  | inactive: 0.327%
21 | CN1C(=O)C(O)(CC(=O)/C=C\c2ccc3c(c2)OCO3)c2ccccc21 (centres undefined) | inconclusive: 15.8 µM [activator, partial curve, poor fit] | 
22 | N#C/C(=C\c1ccc(-c2ccccc2[N+](=O)[O-])o1)C(N)=O | inconclusive: 17.8 µM [activator, partial curve, poor fit] | 

Row | SMILES | Potency | activation
23 | O=C(Nc1nc(-c2ccccn2)cs1)c1ccco1 | inconclusive: 2.24 µM [activator, partial curve, poor fit] | 
24 | O=C(/C=C/c1cc([N+](=O)[O-])ccc1OC(F)F)Nc1cccc2ccccc12 | inconclusive: 11.2 µM [activator, partial curve, poor fit] | 
25 | O=[N+]([O-])c1cccn2cc(-c3ccc(Br)cc3)nc12 | inconclusive: 3.16 µM [activator, full curve] | 
26 | NC(=O)C1(N2CCCCC2)CCN(C(=O)c2ccc(C#Cc3ccccc3)o2)CC1 | inconclusive: 2 µM [activator, partial curve, poor fit] | 
27 | CCCOc1ccc(C2c3c(-c4ccccc4O)n[nH]c3C(=O)N2CCc2ccccc2)cc1OCC (centres undefined) |  | inactive: 0.166%
28 | Cc1ccc(SCCNC(=O)c2ccc(C)c(S(=O)(=O)Nc3ccccc3C)c2)cc1 |  | inactive: 2.35%
29 | COc1cccc(/C=C/C(=O)c2c(O)cc(C)oc2=O)c1O | inconclusive: 15.8 µM [activator, single point] | 
30 | O=c1c2ccccc2nc2n1CCc1ccc(Br)cc1-2 | inconclusive: 17.8 µM [activator, partial curve, poor fit] | 
31 | COc1cccc(NC(=O)c2nc(SC)ncc2Cl)c1 | inconclusive: 2.24 µM [activator, full curve, poor fit] | 
32 | O=c1sc(Nc2ccccc2)nc2ccsc12 | inconclusive: 6.31 µM [activator, partial curve, poor fit] | 
33 | O=C(CCNc1ccc(F)cc1)c1cc2ccccc2o1 | inconclusive: 25.1 µM [activator, single point] | 
34 | COC(=O)c1c(NC(=O)COC(=O)c2ccc(C)s2)sc2c1CCCCC2 |  | inactive: 0.257%
35 | N#C/C(=C/c1ccccc1[N+](=O)[O-])c1nc(C2CC2)cs1 | active: 11.2 µM | 
36 | CCCn1nnc2ccccc2c1=O |  | inactive: -0.342%
37 | CCOC(=O)c1sc2cccc(F)c2c1S(=O)(=O)NCc1ccccc1Cl | inconclusive: 15.8 µM [activator, single point] | 
38 | Cc1cc(C(=O)Nc2ccc([N+](=O)[O-])cn2)cs1 | inconclusive: 17.8 µM [activator, partial curve, poor fit] | 
39 | O=C(N/N=C\c1cccs1)c1sccc1-n1cccc1 | inconclusive: 11.2 µM [activator, partial curve, poor fit] | 
40 | NC(=O)c1ccccc1N/C=C/C(=O)c1ccco1 | inconclusive: 20 µM [activator, partial curve, poor fit] | 
41 | CCn1c(SCC(=O)NC(C)C)nnc1-c1cccs1 |  | inactive: -1.4%
42 | CCCS(=O)(=O)c1nc(S(=O)(=O)c2ccc(C)cc2)c(N2CCN(C)CC2)s1 | inconclusive: 14.1 µM [activator, single point] | 
43 | O=C(CCN1C(=O)/C(=C\c2ccccc2)SC1=S)N1CCCCC1 | inconclusive: 3.16 µM [activator, full curve] | 
44 | N#Cc1nc(-c2ccco2)oc1N1CCOCC1 | active: 12.6 µM | 
